± gives the standard deviation of the averaged measurements. This is one part of the list.
test system: PfAP2-EXP AP2 domain (GST-tagged); assay: gcPBM binding intensity (ln(normalized median fluorescence intensity)); higher = stronger DNA binding
How it was run: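 GST-tagged P. falciparum DNA-binding domains produced in E. coli were incubated for 1 h on an Agilent 4 × 180k array of primer-extended double-stranded 36-bp intergenic genomic probes with negative controls. Binding intensity is the highest Masliner-normalised natural-log median intensity across replicate spots of either probe orientation, with bound protein detected by Alexa488 anti-GST antibody at 488 nm.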

Sequence	gcPBM binding intensity (ln)
ATATTATACGCATATGTGCGCATACATTTTTTTGCA [GTGCAC_site9540]	8.68 ± 0.18
ATGTTATTAATAATTGCACACATTTTTTTTTTTTTT [CACACA_site3920]	8.73 ± 0.5
TCATATTTATATAAATGTACTTAATTGGTTTCTTTA [XGTACX_site7848]	8.46 ± 0.41
AGATTGTAAGTAAACACACACACATATATATGTATA [CACACA_site675]	8.66 ± 0.4
ATTATATAGAATTGTACATGCGAATTGTATAACGAT [TGCATGCA_site125]	9.31 ± 0.57
TATAAACGTATAATATGTACACACACATATATACAA [XGTACX_site1686]	8.43 ± 0.32
TATTTTTTTTTTTTTTTTTTTTTTATATATACATAT [CACACA_negctrl_site23]	8.03 ± 0.45
AAAAAAAAAAAAAAAAATATATTTATGAAATAAAAA [TGCATGCA_negctrl_site262]	8.405 ± 0.078
AATGGATATTTCTTTATATATATCTTATTTGATTAT [XGTACX_negctrl_site284]	8.23 ± 0.25
TTTCTATTCCATTCAACACACAAAAATGTATGCTTT [CACACA_site1072]	8.66 ± 0.37
TTTTTCTTTCTATTTATCAATATTAAAAAAAAAAAA [CACACA_negctrl_site1629]	8.17 ± 0.49
TTTTTATAATGATACATATATTATTTTATTCTTAAT [CACACA_negctrl_site124]	8.15 ± 0.37
TTACTCATGAAAGATACACACATTCGTTATTTATAT [CACACA_site7517]	8.52 ± 0.39
TTTTTTCAAATTTTCTTTTTTCTTTTGTTTTTTTTG [CACACA_negctrl_site380]	8.39 ± 0.54
TATACATGTATATATTGTACATATGTTTTTTTTACA [XGTACX_site3300]	8.86 ± 0.57
TATTTATAAACATACGCACACATTAATATATATATA [CACACA_site9314]	9.47 ± 0.11
TAAATTATTATCCCCTCACACACAAAAATAAAAAGA [CACACA_site2886]	9.12 ± 0.69
CACAAAATAAATTAAACACACAACATCATATATGTA [CACACA_site846]	8.59 ± 0.47
GAAGAAGTTTAAAAAGCACACAAAAAAAAAAAAAAA [CACACA_site9088]	8.21 ± 0.52
ATTATTATTAATCTTGTGCACATATATTTTAATTAG	9.035 ± 0.078
AGATATTCTACTATGTGTACATATATATATATAATT [XGTACX_site5060]	8.65 ± 0.24
CTTGTAGATATAAAATGTACAAAAATAAATTGCACA [XGTACX_site4409]	8.35 ± 0.13
GTACAATCATATACTACATGCAGTTTTTTTTATTGA [TGCATGCA_site230]	9.21 ± 0.27
AAATAAATACATAATACATGCATATTTAATATATAG [TGCATGCA_site135]	8.59 ± 0.2
